Data on 58 molecules can be found in the supplement of paper PMC9135407.

Where “and” joins values, the source holds several entries; their conditions need not be identical. Identical values can stand only once. Counter-ions that a name gives are not always drawn. Out of some 5,800 compounds screened, about 620 (11%) showed activity.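 Rule for the calls: active = score above a cut-off or among the top three wells of a plate; in these data no inactive exceeds 0.85.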 The list shows a part of the results, in another mix than the full data.

This experiment has as its system primary human hepatic stellate cells (donor 1). As to the kind of experiment: scaled lipid accumulation score (0 = DMSO-like, 1 = nortriptyline-like); higher = stronger HSC inactivation (lipid re-accumulation), active = hit call of the paper. Conditions: 48 h.
[1] abbreviates: library stock concentration: 3.33 mM.
[2] abbreviates: library stock concentration: 10 mM.
Where [3] appears, read: library stock concentration: 1 mM.
Setting [4] is: library stock concentration: 4.4 mM.
Setting [5] is: library stock concentration: 2 mM.
Setting [6] is: library stock concentration: 80 uM.
The mark [7] stands for this setting: library stock concentration: 400 uM.
The mark [8] stands for this setting: library stock concentration: 7.9 mM.

Take `COc1ccc(C(=O)CC(=O)c2ccc(C(C)(C)C)cc2)cc1` [Avobenzone]: the “scaled lipid accumulation score” value reads like this: under setting [1], inactive: ≤ 0; (library stock concentration: 6.4 mM) inactive: ≤ 0; under setting [2], inactive: ≤ 0 and inactive: 0.001.
As to `Cc1ccccc1C(=O)c1ccc(Nc2ccc(Br)cc2N)cc1Cl`, under setting [2], the “scaled lipid accumulation score” value was inactive: ≤ -0.001.
On the same count and under the same terms, with `NCCSSCCN` [Cystamine dihydrochloride] the figure was inactive: ≤ 0 and inactive: ≤ -0.024; with `Cc1cc(NC2CCCCC2)nc(-n2nc(C)cc2C)n1`, inactive: ≤ -0.03.
Turning to `Nc1nc2c(ncn2COCCO)c(=O)[nH]1` [Acycloguanosine], the “scaled lipid accumulation score” value (library stock concentration: 8.9 mM) was inactive: 0.026.
As for `Nc1nc2c(ncn2COCCO)c(=O)[nH]1` [Acyclovir], the “scaled lipid accumulation score” value is inactive: 0.051.
In the case of `Nc1nc2c(ncn2COCCO)c(=O)[nH]1` [Aciclovir], the “scaled lipid accumulation score” value reads like this: under setting [1], inactive: 0.044; under setting [2], inactive: ≤ 0.
For the molecule `CCCCC(C)(C)[C@H](O)/C=C/[C@H]1[C@H](O)CC(=O)[C@@H]1CC(=O)CCCCC(=O)O` [16,16-dimethyl-6-keto Prostaglandin E1], the “scaled lipid accumulation score” value under setting [3] is inactive: ≤ 0.
Take `Oc1ccc(-c2c(-c3ccccc3)nn3c(C(F)(F)F)cc(C(F)(F)F)nc23)cc1`: the “scaled lipid accumulation score” value under setting [2] was inactive: ≤ -0.001.
Take `NC1CC1c1ccc(-c2cccc(O)c2)cc1` (stereo unspecified): the “scaled lipid accumulation score” value was inactive: 0.13 under setting [1] and inactive: 0.625 under setting [2].
Consider `CCCCCN(CCCCC)C(=O)C(CCC(=O)O)NC(=O)c1ccc(Cl)c(Cl)c1` (stereo unspecified) [Lorglumide sodium], for which the “scaled lipid accumulation score” value under setting [2] is inactive: 0.002.
On to `CCCCCN(CCCCC)C(=O)C(CCC(=O)O)NC(=O)c1ccc(Cl)c(Cl)c1` (stereo unspecified) [Lorglumide sodium salt], for which the “scaled lipid accumulation score” value is inactive: ≤ 0.
Regarding `CCCCCN(CCCCC)C(=O)C(CCC(=O)O)NC(=O)c1ccc(Cl)c(Cl)c1` (stereo unspecified) [Lorglumide], the “scaled lipid accumulation score” value under setting [4] is inactive: ≤ 0.
In the case of `COc1ccc2[nH]c([S@@+]([O-])Cc3ncc(C)c(OC)c3C)nc2c1` [Esomeprazole magnesium dihydrate], the “scaled lipid accumulation score” value under setting [2] was inactive: ≤ -0.07.
For `COc1ccc2[nH]c([S@@+]([O-])Cc3ncc(C)c(OC)c3C)nc2c1` [Esomeprazole Sodium], the “scaled lipid accumulation score” value is inactive: ≤ 0 under setting [1] and inactive: ≤ 0 under setting [2].
With `COc1ccc2[nH]c([S@@+]([O-])Cc3ncc(C)c(OC)c3C)nc2c1` [Esomeprazole potassium], the “scaled lipid accumulation score” value (library stock concentration: 5.8 mM) was inactive: 0.049.
For the molecule `CC(C)(C)NC(=O)[C@@H]1C[C@@H]2CCCC[C@@H]2CN1C[C@@H](O)[C@H](Cc1ccccc1)NC(=O)[C@H](CC(N)=O)NC(=O)c1ccc2ccccc2n1` [Saquinavir mesylate], the “scaled lipid accumulation score” value was inactive: ≤ 0.
Consider `CC(C)(C)NC(=O)[C@@H]1C[C@@H]2CCCC[C@@H]2CN1C[C@@H](O)[C@H](Cc1ccccc1)NC(=O)[C@H](CC(N)=O)NC(=O)c1ccc2ccccc2n1`, for which the “scaled lipid accumulation score” value under setting [2] is inactive: 0.266.
`COc1cc2ncnc(Nc3ccc(F)c(Cl)c3)c2cc1OCCCN1CCOCC1` [Gefitinib (ZD1839, Iressa) (2 mM)]: the “scaled lipid accumulation score” value under setting [5] is active: 0.864.
As for `COc1cc2ncnc(Nc3ccc(F)c(Cl)c3)c2cc1OCCCN1CCOCC1` [Gefitinib (ZD1839, Iressa) (10 mM)], under setting [2], the “scaled lipid accumulation score” value is active: 0.94.
In the case of `CS(=O)(=O)N1CCN(Cc2cc3nc(-c4cccc5[nH]ncc45)nc(N4CCOCC4)c3s2)CC1`, the “scaled lipid accumulation score” value under setting [6] is inactive: ≤ 0; the “scaled lipid accumulation score” value under setting [7] was inactive: ≤ 0 and inactive: ≤ -0.005; the “scaled lipid accumulation score” value under setting [5] is inactive: 0.08 and inactive: ≤ -0.005; the “scaled lipid accumulation score” value under setting [1] was inactive: 0.122; the “scaled lipid accumulation score” value under setting [2] is inactive: 0.315 and inactive: 0.448 and inactive: 0.49.
As for `CNC(=O)c1cc(Oc2ccc(NC(=O)Nc3ccc(Cl)c(C(F)(F)F)c3)cc2)ccn1` [Sorafenib (Nexavar, BAY43-9006) (10 mM)], under setting [2], the “scaled lipid accumulation score” value is active: 1.21.
As for `CCCCN(CCCC)CCC(O)c1cc2c(Cl)cc(Cl)cc2c2cc(C(F)(F)F)ccc12` (stereo unspecified) [Halofantrine hydrochloride], the “scaled lipid accumulation score” value was inactive: 0.266.
`NC(CCCP(=O)(O)O)C(=O)O` (stereo unspecified): under setting [2], the “scaled lipid accumulation score” value was inactive: 0.024.
As for `NC(CCCP(=O)(O)O)C(=O)O` (stereo not drawn) [D(-)-2-Amino-5-phosphonopentanoic acid], the “scaled lipid accumulation score” value under setting [2] was inactive: 0.148.
As for `COc1cc(F)c(F)c(Nc2ccc(I)cc2F)c1NS(=O)(=O)C1(C[C@H](O)CO)CC1` [Refametinib (RDEA119, Bay 86-9766)], the “scaled lipid accumulation score” value is inactive: ≤ 0 under setting [1] and inactive: ≤ 0 under setting [2].
For the molecule `CC(C)n1cnc2c(NCc3ccccc3)nc(NCCO)nc21` [N9-Isopropylolomoucine], the “scaled lipid accumulation score” value (library stock concentration: 15.3 mM) is inactive: ≤ -0.012.
Take `CC(C)CCN1C(=O)N(CCN(C)C)C(=O)C12CCN(Cc1cn(C)c3ccccc13)CC2`: the “scaled lipid accumulation score” value under setting [2] was active: 0.692.
Regarding `C[C@H](NC[C@H](O)CP(=O)(O)CC1CCCCC1)c1ccc(Cl)c(Cl)c1`, under setting [2], the “scaled lipid accumulation score” value was inactive: ≤ -0.006.
The same measure, in the same setting: with `Cc1occc(=O)c1O` the figure was inactive: ≤ 0.
In the case of `Cn1c(=O)n(-c2ccc(C(C)(C)C#N)cc2)c2c3cc(-c4cnc5ccccc5c4)ccc3ncc21`, the “scaled lipid accumulation score” value was inactive: ≤ 0 under setting [6], inactive: ≤ -0.016 under setting [7], inactive: ≤ -0.016 under setting [5] and inactive: ≤ -0.016 under setting [2].
On to `CCCCC(C)(O)CC=CC1C(O)CC(=O)C1CCCCCCC(=O)OC` (stereo unspecified) [8-iso Misoprostol], for which the “scaled lipid accumulation score” value under setting [3] is inactive: ≤ 0.
For the molecule `CCOC(=O)C1=C(C)NC(C)=C(C(=O)OCC)C1c1ccccc1/C=C/C(=O)OC(C)(C)C`, the “scaled lipid accumulation score” value under setting [2] is inactive: 0.437.
Consider `CCOC(=O)C1=C(C)NC(C)=C(C(=O)OCC)C1c1ccccc1/C=C/C(=O)OC(C)(C)C` [Lacidipine], for which the “scaled lipid accumulation score” value under setting [1] was inactive: 0.203, the “scaled lipid accumulation score” value under setting [4] was inactive: 0.419 and the “scaled lipid accumulation score” value under setting [2] was inactive: 0.745.
As for `C[C@@H](Oc1cc(-n2cnc3ccc(CN4CCN(C)CC4)cc32)sc1C(N)=O)c1ccccc1C(F)(F)F`, under setting [1], the “scaled lipid accumulation score” value is active: 1.22.
Take `CCOc1cc(CC(=O)N[C@@H](CC(C)C)c2ccccc2N2CCCCC2)ccc1C(=O)O`: the “scaled lipid accumulation score” value under setting [2] is inactive: ≤ 0.
Turning to `CCOc1cc(CC(=O)N[C@@H](CC(C)C)c2ccccc2N2CCCCC2)ccc1C(=O)O` [Repaglinide], the “scaled lipid accumulation score” value was inactive: 0.023. For the same molecule, the “scaled lipid accumulation score” value under setting [1] was inactive: ≤ 0. Under setting [4], the “scaled lipid accumulation score” value is inactive: 0.035. Besides, the “scaled lipid accumulation score” value under setting [2] is inactive: ≤ 0 and inactive: 0.025.
For `O=C(O)C(Cc1c[nH]c2ccccc12)N1C(=O)c2ccccc2C1=O` (stereo unspecified), the “scaled lipid accumulation score” value is, setting by setting: under setting [6], inactive: ≤ 0; under setting [7], inactive: ≤ 0; under setting [5], inactive: ≤ 0; under setting [1], inactive: ≤ 0; under setting [2], inactive: 0.017 and inactive: ≤ 0.
Regarding `CNC(=O)c1ccccc1Nc1nc(Nc2ccc(N3CCOCC3)cc2OC)ncc1Cl`, the “scaled lipid accumulation score” value under setting [6] was inactive: ≤ -0.016; the “scaled lipid accumulation score” value under setting [7] was inactive: ≤ -0.016; the “scaled lipid accumulation score” value under setting [5] is inactive: ≤ -0.016; the “scaled lipid accumulation score” value under setting [1] was inactive: ≤ 0; the “scaled lipid accumulation score” value under setting [2] is inactive: ≤ 0 and inactive: ≤ -0.016.
Take `CC1=C(C(=O)Nc2cc3cn[nH]c3cc2F)C(c2ccc(C(F)(F)F)cc2)CC(=O)N1` (stereo unspecified): the “scaled lipid accumulation score” value was inactive: 0.022 under setting [6]; inactive: ≤ 0 and inactive: ≤ -0.005 under setting [7]; inactive: 0.014 and inactive: ≤ -0.005 under setting [5]; inactive: ≤ 0 under setting [1]; inactive: ≤ 0 and inactive: 0.096 and inactive: 0.308 under setting [2].
`O=NN(CCCl)C(=O)NCCCl` [Carmustine]: the “scaled lipid accumulation score” value (library stock concentration: 9.3 mM) was inactive: ≤ 0 and the “scaled lipid accumulation score” value under setting [2] is inactive: ≤ 0.
For the molecule `CCOC(=O)c1ncn2c1CN(C)C(=O)c1cc(F)ccc1-2` [Flumazenil], the “scaled lipid accumulation score” value is, setting by setting: under setting [1], inactive: ≤ 0; (library stock concentration: 6.6 mM) inactive: ≤ -0.006; under setting [2], inactive: ≤ 0 and inactive: ≤ -0.07 and inactive: ≤ -0.006.
Regarding `CCOC(=O)c1ncn2c1CN(C)C(=O)c1cc(F)ccc1-2`, the “scaled lipid accumulation score” value under setting [2] was inactive: ≤ 0.
Take `CC[C@H](NC(=O)c1c(C)c(-c2ccccc2)nc2ccccc12)c1ccccc1`: the “scaled lipid accumulation score” value under setting [2] was inactive: ≤ 0 and inactive: 0.028.
As for `COc1cc(/C=C/c2ccc(O)cc2)cc(OC)c1`, the “scaled lipid accumulation score” value under setting [2] is inactive: ≤ 0.
Turning to `C[C@@H](N)C1CCC(C(=O)Nc2ccncc2)CC1` (stereo partly specified), under setting [1], the “scaled lipid accumulation score” value was inactive: ≤ 0.
For `NCC(O)(CS(=O)(=O)O)c1ccc(Cl)cc1` (stereo unspecified) [2-Hydroxysaclofen], under setting [2], the “scaled lipid accumulation score” value is inactive: ≤ 0 and inactive: 0.019.
For `Cc1cc(C)c2c(c1)[C@@H](N(Cc1cc(C(F)(F)F)cc(C(F)(F)F)c1)c1nnn(C)n1)CCCN2C[C@H]1CC[C@H](C(=O)O)CC1`, the “scaled lipid accumulation score” value runs as follows: under setting [1], inactive: ≤ 0; under setting [2], inactive: ≤ 0.
`COc1cc(N2CCC(N3CCN(C)CC3)CC2)ccc1Nc1ncc(Cl)c(-c2c[nH]c3ccccc23)n1`: the “scaled lipid accumulation score” value is active: 0.981 under setting [5] and active: 0.967 under setting [2].
Take `O=C(O)Cc1ccc(OCCNC[C@H](O)c2ccccc2)cc1` [ZD 2079 hydrochloride]: the “scaled lipid accumulation score” value under setting [2] was inactive: ≤ -0.001.
Turning to `CC(C1=C(CCN(C)C)Cc2ccccc21)c1ccccn1` (stereo in doubt) [(S)-(+)-Dimethindene maleate], the “scaled lipid accumulation score” value under setting [2] was inactive: 0.162.
On the same count and under the same terms, the value for `Nc1nc(N)c2nc(CNc3ccc(C(=O)N[C@@H](CCC(=O)O)C(=O)O)cc3)cnc2n1` [Aminopterin] was inactive: ≤ 0 and inactive: 0.071.
Regarding `C=C1CC2(O)OC3(CC2C(C)C)C(C)CCC13` (stereo unspecified) [Curcumol], the “scaled lipid accumulation score” value is inactive: ≤ 0 under setting [1] and inactive: ≤ 0 under setting [2].
For `CC(C(=O)O)c1cccc(C(=O)c2ccccc2)c1` (stereo unspecified) [Ketoprofen (s)], the “scaled lipid accumulation score” value under setting [8] is inactive: ≤ 0.
On to `CC(C(=O)O)c1cccc(C(=O)c2ccccc2)c1` (stereo unspecified) [Ketoprofen], for which the “scaled lipid accumulation score” value was inactive: ≤ 0. Besides, the “scaled lipid accumulation score” value under setting [3] was inactive: ≤ 0. The “scaled lipid accumulation score” value under setting [1] is inactive: ≤ 0. Also, under setting [8], the “scaled lipid accumulation score” value is inactive: ≤ -0.006 and inactive: ≤ 0. The “scaled lipid accumulation score” value under setting [2] was inactive: ≤ 0 and inactive: 0.169.
For the molecule `Cc1[nH]c(/C=C2\C(=O)Nc3ccc(S(=O)(=O)Cc4c(Cl)cccc4Cl)cc32)c(C)c1C(=O)N1CCC[C@@H]1CN1CCCC1`, the “scaled lipid accumulation score” value by setting is: under setting [6], active: 1.15; under setting [7], active: 1.16; under setting [5], active: 1.16.
On to `C[C@H](NC(=O)C(C#N)=Cc1cccc(Br)n1)c1ccccc1`, for which the “scaled lipid accumulation score” value under setting [1] was active: 1.05.
Regarding `c1cc(-c2cnn3cc(-c4ccc(N5CCNCC5)cc4)cnc23)c2cccnc2c1`, the “scaled lipid accumulation score” value was inactive: 0.073 under setting [1] and inactive: ≤ 0 under setting [2].
